What all share (test): two-hybrid; BacterioMatch II bacterial two-hybrid: pBT bait (λcI fusion) and pTRG-AnvM (RNA polymerase alpha-subunit fusion) cotransformed into the validation reporter strain; growth on nonselective and dually selective media (3-amino-1,2,4-triazole plus streptomycin), 30°C, 2 to 4 days
In assay [1] the target is NarL (bacterial two-hybrid construct) (P. aeruginosa) (UniProt Q9HXD3).
Assay [2] concerns the target Toll-like receptor 2 fused to lambda repressor protein (pBT-TLR2) (UniProt Q9QUN7).
For assay [3], the target named is Anr fused to lambda repressor protein (pBT-Anr) (P. aeruginosa) (UniProt P23926).
Assay [4] deals with T1, MvfR fused to lambda repressor protein (pBT-MvfR) (P. aeruginosa) (UniProt Q9I4X0).
T1 sequence: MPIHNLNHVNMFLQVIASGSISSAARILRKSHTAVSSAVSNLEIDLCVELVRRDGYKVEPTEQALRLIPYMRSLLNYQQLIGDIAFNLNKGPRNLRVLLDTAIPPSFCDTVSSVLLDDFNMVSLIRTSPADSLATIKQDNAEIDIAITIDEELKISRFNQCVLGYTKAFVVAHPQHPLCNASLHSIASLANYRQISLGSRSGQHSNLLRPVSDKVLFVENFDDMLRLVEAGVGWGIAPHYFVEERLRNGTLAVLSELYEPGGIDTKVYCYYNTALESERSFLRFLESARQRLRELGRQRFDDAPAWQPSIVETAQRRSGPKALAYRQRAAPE

Amino acid sequences for entries named in this document (tags omitted).
UniProt Q9QUN7: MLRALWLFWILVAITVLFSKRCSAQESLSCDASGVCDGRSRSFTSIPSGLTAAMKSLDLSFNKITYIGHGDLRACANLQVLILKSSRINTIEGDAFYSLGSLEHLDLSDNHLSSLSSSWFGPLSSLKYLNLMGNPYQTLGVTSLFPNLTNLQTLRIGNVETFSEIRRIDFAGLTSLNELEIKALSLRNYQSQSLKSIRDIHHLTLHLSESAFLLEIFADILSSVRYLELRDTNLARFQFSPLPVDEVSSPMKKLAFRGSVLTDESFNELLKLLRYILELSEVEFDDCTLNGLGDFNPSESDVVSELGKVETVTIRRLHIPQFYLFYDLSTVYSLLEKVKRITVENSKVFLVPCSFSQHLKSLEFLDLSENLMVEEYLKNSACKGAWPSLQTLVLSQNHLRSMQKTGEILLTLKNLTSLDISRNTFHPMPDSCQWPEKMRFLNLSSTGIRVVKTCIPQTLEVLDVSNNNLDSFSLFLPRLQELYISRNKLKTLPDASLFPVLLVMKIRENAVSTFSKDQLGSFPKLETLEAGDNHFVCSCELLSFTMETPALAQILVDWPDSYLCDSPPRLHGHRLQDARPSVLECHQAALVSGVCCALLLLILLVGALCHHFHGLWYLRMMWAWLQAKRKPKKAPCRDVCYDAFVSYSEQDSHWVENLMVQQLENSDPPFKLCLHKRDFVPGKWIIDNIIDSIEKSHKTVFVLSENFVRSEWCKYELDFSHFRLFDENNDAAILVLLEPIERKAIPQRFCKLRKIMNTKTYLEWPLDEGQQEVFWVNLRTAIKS
UniProt P23926: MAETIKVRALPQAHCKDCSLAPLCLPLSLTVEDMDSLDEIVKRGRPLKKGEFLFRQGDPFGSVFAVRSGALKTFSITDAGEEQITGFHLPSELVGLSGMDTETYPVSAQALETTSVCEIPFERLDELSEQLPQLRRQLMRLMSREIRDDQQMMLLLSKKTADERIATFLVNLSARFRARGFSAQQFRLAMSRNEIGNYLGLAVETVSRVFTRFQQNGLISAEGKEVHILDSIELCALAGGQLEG
UniProt Q9JLF7: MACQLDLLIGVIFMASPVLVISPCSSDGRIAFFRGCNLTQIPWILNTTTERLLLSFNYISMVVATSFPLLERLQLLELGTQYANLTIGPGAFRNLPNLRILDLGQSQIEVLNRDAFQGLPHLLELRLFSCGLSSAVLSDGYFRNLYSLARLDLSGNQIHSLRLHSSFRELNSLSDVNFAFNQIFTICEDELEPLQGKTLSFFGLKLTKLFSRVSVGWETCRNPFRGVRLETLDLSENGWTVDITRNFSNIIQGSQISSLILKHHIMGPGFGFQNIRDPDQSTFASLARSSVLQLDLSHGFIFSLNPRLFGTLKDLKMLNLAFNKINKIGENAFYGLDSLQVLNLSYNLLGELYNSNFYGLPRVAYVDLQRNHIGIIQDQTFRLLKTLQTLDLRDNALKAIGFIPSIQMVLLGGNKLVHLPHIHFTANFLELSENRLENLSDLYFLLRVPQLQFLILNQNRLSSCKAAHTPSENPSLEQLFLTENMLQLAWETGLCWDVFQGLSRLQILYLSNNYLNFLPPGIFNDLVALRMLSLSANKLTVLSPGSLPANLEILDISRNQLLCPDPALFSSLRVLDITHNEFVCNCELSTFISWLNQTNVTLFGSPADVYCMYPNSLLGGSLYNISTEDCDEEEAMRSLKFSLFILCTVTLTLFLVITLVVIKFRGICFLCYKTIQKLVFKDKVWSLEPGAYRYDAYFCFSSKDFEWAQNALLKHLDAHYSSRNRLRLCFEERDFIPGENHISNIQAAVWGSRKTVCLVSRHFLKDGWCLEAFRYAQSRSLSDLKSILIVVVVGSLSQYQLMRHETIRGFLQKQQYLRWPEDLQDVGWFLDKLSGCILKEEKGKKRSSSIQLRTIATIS
UniProt Q9HXD2: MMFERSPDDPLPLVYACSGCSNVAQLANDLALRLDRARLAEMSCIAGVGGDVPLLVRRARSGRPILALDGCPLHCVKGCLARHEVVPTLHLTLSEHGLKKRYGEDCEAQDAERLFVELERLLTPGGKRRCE

For assay [5], the target named is Toll-like receptor 5 fused to lambda repressor protein (pBT-TLR5) (UniProt Q9JLF7).

These are yes or no findings as the source states them, for the method shown. Some binding calls cover weakened binding; strength is not graded here. For some assays here: Sequences can lack the tags named with a protein.

With “AnvM fused to the alpha-subunit of RNA polymerase (pTRG-AnvM) (from UniProt Q9HXD2 1-131)”, the binding entry in assay [1] is given as “no binding”; in assay [2], “binds”; in assay [3], “binds”; in assay [4], “binds”; in assay [5] it was “binds”.

Values taken from PMC6650552.
